Drawing on PubChem BioAssay AID1745853 (National Center for Advancing Translational Sciences (NCATS), 2022), this text covers activity change, negative = inhibition for 30 compounds.

This is one part of the list. The main result of the screen is listed elsewhere. These columns were measured beside it and carry no call.

Common to all, as to assay: Primary Screen for Target Class Profiling of Small Molecule Inhibitors of Methyltransferases
The target of assay [1] is Glycine N-methyltransferase (Homo sapiens) (UniProt Q14749). The following applies: purified enzyme, MTase-Glo SAH luminescence; measured here: GNMT inhibition; at 40 µM; stronger effect = lower value. In a few lines:
(§1)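 Each enzyme was assayed with SAM and its substrate. SAH formation detected by MTase-Glo luminescence; single-point 40 uM screen[…].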

Assay [2] has as its target Guanidinoacetate N-methyltransferase (Homo sapiens) (UniProt Q14353). Conditions: purified enzyme, MTase-Glo SAH luminescence; measured here: GAMT inhibition; at 40 µM; stronger effect = lower value. In a few lines: as §1
The target of assay [3] is Histamine N-methyltransferase (Homo sapiens) (UniProt P50135). Conditions: purified enzyme, MTase-Glo SAH luminescence; measured here: HNMT inhibition; at 40 µM; stronger effect = lower value. In a few lines:
as §1

Assay [4] has as its target Nicotinamide N-methyltransferase (Homo sapiens) (UniProt P40261). The following applies: purified enzyme, MTase-Glo SAH luminescence; measured here: NNMT inhibition; at 40 µM; stronger effect = lower value. In a few lines:
as §1

The target in assay [5] is Phenylethanolamine N-methyltransferase (Homo sapiens) (UniProt P11086). The following applies: purified enzyme, MTase-Glo SAH luminescence; measured here: PNMT inhibition; at 40 µM; stronger effect = lower value. In a few lines:
as §1
% is set by controls: 0 for no effect and ±100 for the full control effect.

Consider `CC1=COC(OC2OC(CO)C(O)C(O)C2O)C2C(CO)CC(OC(=O)/C=C/c3ccc(O)cc3)C12` (stereo not given), for which the activity change, negative = inhibition in assay [1] is -1.26%; in assay [2], -2.64%; in assay [3], -7.06%; in assay [4], -13.1%; in assay [5], 0.203%.

Take `CCCN1C(=O)c2ccccc2CC1(C)C(=O)NC1CCCCCCC1` (stereo not given): the activity change, negative = inhibition in assay [1] is -0.109%; in assay [2], 0%; in assay [3], 11.5%; in assay [4] it was 11%; in assay [5] it was 4.18%.

For the compound `CCc1ccc(CNC(=O)CNC(=O)C2(C)Cn3c(cc4ccccc43)C(=O)N2CC)cc1` (stereo not given), the activity change, negative = inhibition in assay [1] is 2.67%; in assay [2], 0%; in assay [3], 7.88%; in assay [4], -2.49%; in assay [5], 3.05%.

On to `CCCN1C(=O)c2c(C(=O)NCc3cc(Br)ccc3OC)ncn2CC1(C)C(=O)NCCC(C)C` (stereo not given), for which the activity change, negative = inhibition in assay [1] is -1.77%; in assay [2], 0%; in assay [3] it was -0.658%; in assay [4], -7.5%; in assay [5] it was 2.31%.

For `CC(C)Oc1ccc(CNC(=O)Cn2ccc3cc(S(=O)(=O)N4CCCC4)ccc32)cc1`, the activity change, negative = inhibition is -4.07% in assay [1]; 2.48% in assay [2]; -1.34% in assay [3]; -5.72% in assay [4]; -1.04% in assay [5].

With `CC(C)(Oc1ccc(C2CC2(Cl)Cl)cc1)C(=O)O` (stereo not given), the activity change, negative = inhibition in assay [1] is 10.1%; in assay [2], 15%; in assay [3] it was 13.1%; in assay [4], -1.07%; in assay [5] it was 4.78%.

Take `C[S+](=O)([O-])c1ccc(-c2nnc3ccc(C(=O)NC4CCCCC4)cn23)cc1`: the activity change, negative = inhibition in assay [1] is -5.71%; in assay [2], -10.3%; in assay [3], -9.38%; in assay [4] it was -14.5%; in assay [5] it was 7.28%.

On to `COc1cccc(CN2C(=O)c3cc4occc4n3CC2(C)C(=O)NC2CCCC(C)C2C)c1` (stereo not given), for which the activity change, negative = inhibition in assay [1] was -6.97%; in assay [2] it was 0.204%; in assay [3], 0.114%; in assay [4], -14.1%; in assay [5], -3.55%.

Consider `CC(C)(C)C(=O)N[C@H]1C[C@@H](Cc2cc(CN3CCN(c4ccccc4)CC3)on2)C1(C)C`, for which the activity change, negative = inhibition is -6.31% in assay [1]; -8.32% in assay [2]; -5.08% in assay [3]; -12.6% in assay [4]; -12.4% in assay [5].

With `CCc1ccc(N2C(=O)c3cc4oc(C)cc4n3CC2(C)C(=O)NC2CCCCCC2)cc1` (stereo not given), the activity change, negative = inhibition in assay [1] is -2.38%; in assay [2] it was 3.23%; in assay [3], 4.25%; in assay [4] it was 1.86%; in assay [5], -2.48%.

As to `CCn1c(C)ccc(C(=O)N2CCc3[nH]nc(-c4ccccc4F)c3C2)c1=O`, the activity change, negative = inhibition in assay [1] was -8.54%; in assay [2] it was -6.71%; in assay [3] it was -3.59%; in assay [4], -8.99%; in assay [5] it was -17.8%.

`COc1ccc(CCNC(=O)c2ccc3nnc(C4CC4)n3c2)cc1`: the activity change, negative = inhibition in assay [1] is -8.19%; in assay [2], -8.71%; in assay [3], -4.19%; in assay [4] it was -12%; in assay [5], -5.82%.

Regarding `Cc1c(Cl)cccc1NC(=O)N1CCn2cccc2C1C(C)C` (stereo not given), the activity change, negative = inhibition in assay [1] amounted to 3.12%; in assay [2], 0.16%; in assay [3], 0.595%; in assay [4], 0.271%; in assay [5], 0.56%.

Turning to `COC(=O)c1ncn2c1C(=O)N(Cc1ccc(Cl)cc1)C(C)(C(=O)NC1CCCCC1)C2` (stereo not given), the activity change, negative = inhibition was determined as 5.78% in assay [1]; 5.96% in assay [2]; 8.11% in assay [3]; 11.7% in assay [4]; 4.48% in assay [5].

Turning to `COc1ccc(C(=O)N2CCC3(CC2)CC(N(Cc2ccccc2)C2CC2)CCO3)cn1` (stereo not given), the activity change, negative = inhibition in assay [1] was -8.38%; in assay [2] it was -9.23%; in assay [3] it was -5.7%; in assay [4], -17.6%; in assay [5], -9.36%.

Turning to `COc1ccc(S(=O)(=O)Nc2cc(Cl)cc(Cl)c2OC)cc1N1CCNCC1`, the activity change, negative = inhibition in assay [1] was -0.62%; in assay [2] it was -6.01%; in assay [3] it was 1.51%; in assay [4] it was -14.2%; in assay [5] it was -9.7%.

Take `COc1ccc(-c2ccccc2NC(=O)C2CCCN2C(=O)c2cccnc2)cc1` (stereo not given): the activity change, negative = inhibition in assay [1] is -5.77%; in assay [2] it was -5.33%; in assay [3], -1.66%; in assay [4], -10.5%; in assay [5], -5.2%.

Take `CC(C)CNC(=O)c1ccc2c(=O)n(C(C)C)c3nn(Cc4ccc(N5CCCC5=O)cc4)c(=O)n3c2c1`: the activity change, negative = inhibition in assay [1] turned out to be 2.75%; in assay [2] it was 0%; in assay [3], 5.07%; in assay [4], 4.17%; in assay [5], 5.36%.

Take `CCCn1c(=O)c2ccc(C(=O)NC3CCCCC3)cc2n2c(=O)n(CC(=O)NC3CCCCC3)nc12`: the activity change, negative = inhibition is 10% in assay [1]; 1.25% in assay [2]; 12.7% in assay [3]; 6.82% in assay [4]; 8.16% in assay [5].

On to `Cn1c(=O)n(C)c2cc(S(=O)(=O)NCc3ccccc3)c(Cl)cc21`, for which the activity change, negative = inhibition is -6.03% in assay [1]; -1.13% in assay [2]; -9.88% in assay [3]; -11.5% in assay [4]; -7.15% in assay [5].

Consider `COC(=O)C1=COC(O[C@@H]2O[C@H](CO)[C@@H](O)[C@H](O)[C@H]2O)C2C(C)C(=O)CC12` (stereo not given in full), for which the activity change, negative = inhibition is 6.58% in assay [1]; 3.11% in assay [2]; 8.91% in assay [3]; -4.15% in assay [4]; 4.47% in assay [5].

Regarding `CCCn1c(C)cnc1CCNC(=O)CC1CCN(C(C)=O)CC1`, the activity change, negative = inhibition in assay [1] is -0.906%; in assay [2], 0.924%; in assay [3], -13%; in assay [4], -6.07%; in assay [5], 6.76%.

With `O=c1c2ccccc2n2c(=O)n(Cc3ccc(F)cc3Cl)nc2n1Cc1ccccc1`, the activity change, negative = inhibition in assay [1] is 0.135%; in assay [2], 0%; in assay [3], 5.12%; in assay [4] it was 2.62%; in assay [5], 3.64%.

With `Cc1cccc(C(=O)N2CCC(c3nc(C4CCOCC4)no3)C2)c1` (stereo not given), the activity change, negative = inhibition in assay [1] was -2.85%; in assay [2] it was -2.77%; in assay [3], -1.27%; in assay [4] it was -9.65%; in assay [5], -6.27%.

Regarding `Cc1ccc(CNC(=O)c2cc3n(n2)CC(C)(C(=O)NC2CCCCC2)N(C)C3=O)cc1` (stereo not given), the activity change, negative = inhibition in assay [1] was found to be 6.25%; in assay [2] it was 0.104%; in assay [3] it was 4.44%; in assay [4] it was 11.3%; in assay [5], 3.82%.

Consider `CC(/C=C/[C@]1(O)[C@@]2(C)CO[C@@]1(C)C[C@@H](O)C2)=C\C(=O)O[C@@H]1O[C@H](CO)[C@@H](O)[C@H](O)[C@H]1O`, for which the activity change, negative = inhibition in assay [1] was 0%; in assay [2], 0.666%; in assay [3], -3.19%; in assay [4], -9.84%; in assay [5] it was 0.77%.

Consider `CN1CCC2(CCC1=O)CN(C(=O)CCOc1ccccc1)CCN2C` (stereo not given), for which the activity change, negative = inhibition in assay [1] was -4.69%; in assay [2], 1.24%; in assay [3], 2.81%; in assay [4], -0.27%; in assay [5], -17.2%.

For `O=C(Cn1ccc2cc(S(=O)(=O)N3CCCC3)ccc21)NCCc1ccc(Cl)cc1`, the activity change, negative = inhibition in assay [1] was -0.214%; in assay [2] it was 0%; in assay [3], -2.64%; in assay [4] it was -0.81%; in assay [5] it was -2.06%.

Turning to `O=C1CC2CCN(C(=O)C3CCCCC3)CC2CCN1` (stereo not given), the activity change, negative = inhibition in assay [1] is 0.537%; in assay [2] it was 1.55%; in assay [3], 3.47%; in assay [4], -0.763%; in assay [5], -0.505%.

`COc1ccc(-c2cn3cc(C(=O)N4CCCCC4)nc3c(=O)n2CC2CC2)cc1`: the activity change, negative = inhibition in assay [1] was -27.6%; in assay [2], 2.12%; in assay [3] it was 2.45%; in assay [4], -14.7%; in assay [5], 1.43%.
